Experimental data published in PubChem BioAssay AID686978 (National Center for Advancing Translational Sciences (NCATS), 2013).
Out of some 420,000 compounds screened, about 64,000 (15%) were called active. Inconclusive results, whose numbers are uncertain, are shown with a selection of clear calls. The call rests on the fitted dose curve; in most records, active means well fitted inhibition curve with a large enough effect; inconclusive means small, poorly fitted or top-dose-only effect; inactive means flat fitted curve, though single readings scatter. No potency is given beside an inconclusive call; the fits are too rough.

experiment: qHTS for Inhibitors of human tyrosyl-DNA phosphodiesterase 1 (TDP1): qHTS in cells in absence of CPT; settings: DT40 Tdp1-/- hTDP1 cells, no CPT, ATP luminescence, 48 h; activity change, negative = growth inhibition: at 46.2 µM (top of the series) unless noted; further: nearly all actives have a fitted effect of over 55% in size
Summary of the method: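 No-CPT arm: Tdp1-/-;hTDP1 DT40 cells (400/well) plus compounds, incubated ≥48 hr at 37 °C. Readout CellTiter-Glo luminescence.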
On the % scale 0 is the no-effect control and ±100 the full control effect; potency means the concentration at half of the fitted maximal effect; tags describe the fitted curve by direction and shape.

Question: Which Potency does the source give for `CCc1ccc(/C=C2/C(=O)N(c3ccccc3)C(=S)N2CC(=O)OC)s1` here?
Answer: inconclusive [inhibitor, single point]

Question: Which Potency does the source give for `Cc1ccc(S(=O)(=O)NC(CC(C)C)C(=O)Nc2nccs2)cc1` (stereo not drawn) here?
Answer: inconclusive [inhibitor, single point]

Question: For `O=C(C1CCCCN1S(=O)(=O)c1ccc(F)cc1)N1CCN(c2ccccc2F)CC1` (stereo not drawn), which Potency is on record?
Answer: inconclusive [inhibitor, partial curve]

Question: Which Potency does the source give for `CCC(CC)C(=O)N1CC(=O)Nc2ccc(F)cc2C1c1ccccc1` (stereo not drawn) here?
Answer: inconclusive [inhibitor, single point]

Question: With `CC1CCc2nc3sc4c(c3c(N)c2C1)CCCC4` (stereo not drawn) as the molecule, how does the Potency read?
Answer: inconclusive [inhibitor, single point]

Question: For `Nc1c(C(=O)O)ccc2c1C(=O)c1ccccc1C2=O`, which Potency is on record?
Answer: inconclusive [inhibitor, partial curve]

Question: With `COc1ccc(C(=O)OCC(=O)NC2CCCCCCC2)cc1OC` as the molecule, how does the “activity change, negative = growth inhibition” value read?
Answer: inactive: -20.6%

Question: For `COc1ccc(-c2nn(-c3ccccc3)cc2C2CC(c3cccs3)=NN2C(=O)CCCC(=O)O)cc1` (stereo not drawn), which Potency is on record?
Answer: inconclusive [inhibitor, single point]

Question: With `CCCN(CC1CC1)c1cc2c(c3c1ccn3C)C1CCC2O1` (stereo not drawn) as the molecule, how does the Potency read?
Answer: active: 10.3 µM

Question: With `COc1cccc(-n2c(=O)c3sc4ccccc4c3n(CC(=O)NC3CCCCC3)c2=O)c1` as the molecule, how does the Potency read?
Answer: inconclusive [inhibitor, partial curve]

Question: With `CC(=O)c1c(C)[nH]c(C(=O)Nc2ccc(C)c(S(=O)(=O)Nc3ccc(C)cc3C)c2)c1C` as the molecule, how does the Potency read?
Answer: inconclusive [inhibitor, single point]

Question: Which “activity change, negative = growth inhibition” value does the source give for `CCC(C)(C)NC(=O)CN(C(=O)CCC(=O)Nc1nccs1)c1ccc(C)cc1` here?
Answer: inactive: -14.9%

Question: For `Cc1ccc(C(=O)C=CC=Cc2ccccc2)cc1`, which Potency is on record?
Answer: inconclusive [inhibitor, single point]

Question: With `CCN(CC)C(=O)c1cccc(-c2csc(C(O)c3ccco3)n2)c1` (stereo not drawn) as the molecule, how does the Potency read?
Answer: inconclusive [inhibitor, single point]

Question: With `Cc1cccc(C)c1NC(=O)c1cccc2c1C(=O)N(C1CCCCC1)C2` as the molecule, how does the Potency read?
Answer: active: 16.4 µM

Question: For `Cc1ccc(C)c(OCCC(=O)OCC(=O)NCCNC(=O)COC(=O)CCOc2cc(C)ccc2C)c1`, which Potency is on record?
Answer: inconclusive [inhibitor, single point]

Question: For `Cc1c(Cl)c([N+](=O)[O-])nn1CCCC(=O)Nc1c(C)n(C)n(-c2ccccc2)c1=O`, which “activity change, negative = growth inhibition” value is on record?
Answer: inactive: -11.9%

Question: Which Potency does the source give for `O=C(/C=C/c1cccs1)c1ccco1` here?
Answer: inconclusive [inhibitor, partial curve, poor fit]

Question: For `O=C(Nc1cccc(S(=O)(=O)N2CCOCC2)c1)C1CCCCN1S(=O)(=O)c1ccccc1` (stereo not drawn), which Potency is on record?
Answer: inconclusive [inhibitor, single point]

Question: With `COc1cc(/C(C)=N/NC(=O)CSc2nncn2C)ccc1OCc1ccccc1Cl` as the molecule, how does the “activity change, negative = growth inhibition” value read?
Answer: inactive: -7.69%

Question: For `Cn1c(=O)oc2cc(S(=O)(=O)NCCC(=O)Nc3ccc(F)cc3F)ccc21`, which “activity change, negative = growth inhibition” value is on record?
Answer: inactive: -13.6%

Question: For `Cn1c(=O)c2[nH]c(CCCc3ccc([N+](=O)[O-])cc3)nc2n(C)c1=O`, which Potency is on record?
Answer: inconclusive [inhibitor, partial curve]

Question: For `N#Cc1cnc(Nc2nc3ccccc3o2)nc1-c1ccccc1`, which Potency is on record?
Answer: inconclusive [inhibitor, single point]

Question: With `CCCCn1c(=N)n(CC(O)COc2cccc(C)c2)c2ccccc21` (stereo not drawn) as the molecule, how does the Potency read?
Answer: active: 13 µM

Question: For `Cc1cc(N)n(-c2ccc(S(=O)(=O)c3ccc(C(C)C)cc3)cc2)n1`, which Potency is on record?
Answer: inconclusive [inhibitor, partial curve]

Question: For `COC(=O)c1ccc(CN(Cc2ccc(C(=O)OC)o2)C(C)(C)C)o1`, which Potency is on record?
Answer: inconclusive [inhibitor, single point]

Question: Which Potency does the source give for `CCOC(=O)Nc1ccc2c(c1)N(CCCN(C)C)c1ccccc1CC2` here?
Answer: inconclusive [inhibitor, single point]

Question: With `COCCn1c(SCc2c(F)cccc2Cl)nc2c1c(=O)[nH]c(=O)n2C` as the molecule, how does the Potency read?
Answer: inconclusive [inhibitor, partial curve, poor fit]

Question: Which Potency does the source give for `Cc1ccc(S(=O)(=O)N(CC(=O)Nc2ccc3c(c2)OCO3)c2cc(Cl)cc(Cl)c2)cc1` here?
Answer: inconclusive [inhibitor, single point]

Question: With `COc1ccc(C2/C=C\CN(S(=O)(=O)c3cccc4cccnc34)CC(=O)N2Cc2ccc(F)cc2)cc1` (stereo not drawn) as the molecule, how does the Potency read?
Answer: inconclusive [inhibitor, single point]

Question: Which “activity change, negative = growth inhibition” value does the source give for `CC(C)C(C(=O)O)N1CCS(=O)(=O)CC1` (stereo not drawn) here?
Answer: inactive: -0.335%

Question: With `CCCCC(=O)NC1CC(=O)N(c2ccc3c(c2)OCCO3)C1` (stereo not drawn) as the molecule, how does the “activity change, negative = growth inhibition” value read?
Answer: inactive: -25.3%

Question: With `COc1ccc(CNC(=O)Cn2c(=O)nc(-c3ccccc3)c3ccccc32)cc1OC` as the molecule, how does the Potency read?
Answer: active: 16.4 µM

Question: With `CC1(C)Cc2c(sc3c2c(=N)n(Cc2ccco2)c(=O)n3CC(=O)Nc2ccccc2)CO1` as the molecule, how does the Potency read?
Answer: inconclusive [inhibitor, single point]

Question: For `CN1C(=O)C(O)(CC(=O)c2cccs2)c2ccccc21` (stereo not drawn), which Potency is on record?
Answer: inconclusive [inhibitor, single point]

Question: Which “activity change, negative = growth inhibition” value does the source give for `O=[N+]([O-])c1ccc(Cl)c(NC2=NCCCCC2)c1` here?
Answer: inactive: 0.736%

Question: For `CC(C)CCNC(=O)Cc1ccc(NC(=O)N2CCCCc3ccccc32)cc1`, which Potency is on record?
Answer: inconclusive [inhibitor, partial curve]

Question: With `CCN(CCCNC(=O)C1CCC(=O)N1Cc1ccc(C)cc1)c1cccc(C)c1` (stereo not drawn) as the molecule, how does the Potency read?
Answer: active: 23.1 µM

Question: For `COCc1cc(C)nc(SCc2ccc(Br)cc2)c1C#N`, which Potency is on record?
Answer: inconclusive [inhibitor, single point]

Question: With `Cc1ccc(C)c(NC(=O)CN(C)C(=O)c2cccc(S(=O)(=O)N3CCN(Cc4ccccc4)CC3)c2)c1` as the molecule, how does the Potency read?
Answer: active: 11.6 µM

Question: For `CC(NC(=O)C1CC1)C(c1cccs1)N1CCN(c2ccccc2)CC1` (stereo not drawn), which Potency is on record?
Answer: inconclusive [inhibitor, single point]

Question: With `CCOc1ccc(C(C(=O)NCC2CCCO2)N(Cc2cccc(OC)c2)C(=O)c2snc(C(N)=O)c2N)cc1` (stereo not drawn) as the molecule, how does the Potency read?
Answer: inconclusive [inhibitor, single point]

Question: With `O=C(NCCC1=CCCCC1)c1ccc2c(c1)N(Cc1cccc(Cl)c1)C(=O)c1ccccc1S2=O` (stereo not drawn) as the molecule, how does the Potency read?
Answer: inconclusive [inhibitor, single point]
